Molecular target: T1, GST-ß1-AR(425–477) (human, UniProt P08588 425-477)
T1 construct: carboxy-tail of the human ß1-adrenergic receptor, amino acids 425–477 (SmaI-XhoI fragment in pGEX-4T-2); ends in the type-1 PDZ ligand ESKV; also called GST-tagged ß1-AR C-tail; GST-ß1-AR C-tail; source: BL21 bacteria, purified (glutathione resin, dialyzed in PBS with 10% glycerol); not shown: GST, N-terminal, kept
T1 sequence (looked up): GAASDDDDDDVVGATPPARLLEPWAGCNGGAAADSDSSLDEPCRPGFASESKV
Experiment: pull-down; increasing concentrations of purified GST-ß1-AR(425–477) mixed with lysate of HEK-293 cells over-expressing SAP97-YFP (0.2% Triton X-100 in PBS), glutathione beads, 2 h at 4°C; anti-SAP97 blot, optical densities, half-maximal value from n = 3; apparent EC50
Conditions: one partner purified

- EC50: 500 nM
B1: WT rSAP97-YFP (natural protein, rat)
chain: MPVRKQDTQRALHLLEEYRSKLSQTEDRQLRSSIERVISIFQSNLFQALIDIQEFYEVTLLDNPKCVDHSKQCEPVQPGNPWESGSLSSAAVTSESLPGGLSPPVEKYRYQDEEVLPSERISPQVPNEVLGPELVHVSEKSLSEIENVHGFVSHSHISPIKPTEAVPPSSPIVPVTPALPVPAESPVVLPSTPQANPPPVLVNTDSLETPTYVNGTDADYEYE[about 80 residues left out]KAFRKNHEIKLIKGPKGLGFSIAGGVGNQHIPGDNSIYVTKIIEGGAAHKDGKLQIGDKLLAVNSVCLEEVTHEEAVTALKNTSDFVYLKAAKPTSMYINDGYAPPDITNSSSQSVDNHVSPSSYLGQTPASPARYSPISKAVLGDDEITREPRKVVLHRGSTGLGFNIVGGEDGEGIFISFILAGGPADLSGELRKGDRIISVNSVDLRAASHEQAAAALKNAGQAVTIVAQYRPEEYSRFEAKIHDLRETMMNSSVSSGSGSLRTSQKRSLYVRALFDYDKTKDSGLPSQGLNFKFGDILHVINASDDEWWQARQVTPDGESDEVGVIPSKRRVEKKERARLKTVKFNSKTRGDKGEIPDDMGSKGLKHVTSNASDSESSYHEYGCSKGGQEEYVLSYEPVNQQEVNYTRPVIILGPMKDRVNDDLISEFPDKFGSCVPHTTRPKRDYEVDGRDYHFVTSREQMEKDIQEHKFIEAGQYNNHLYGTSVQSVRAVAEKGKHCILDVSGNAIKRLQIAQLYPISIFIKPKSMENIMEMNKRLTDEQARKTFERAVRLEQEFTEHFTAIVQGDTLEDIYNQVKQIIEEQSGPYIWVPAKEKL
notes: Printed both as SAP97-YFP and as YFP-SAP97; also called YFP-SAP97
